Results: the supplement of paper PMC9446081
About 220 (0.56%) of roughly 39,000 compounds showed activity. Some of the results follow.

Tested on: Escherichia coli K-12 BW25113
Assay: relative growth (OD600 normalised to plate interquartile mean) (fraction); higher = less growth inhibition, active = 0.2 or less
Conditions: 50 µM; LB; incubation time: overnight (16-24 h)
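Note: static incubation at 37 °C against the wild-type strain, values averaged over two biological replicates.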

| SMILES | relative growth |
| --- | --- |
| Cn1cccc1C(=O)NCc1cn2c(n1)CN(S(C)(=O)=O)CC2 | inactive: 1.01 |
| Cc1ccc(S(=O)(=O)Nc2ccc3c(c2)C(=O)N([C@@H](C)CO)C[C@H](C)[C@@H](CN(C)C(=O)Nc2ccccc2)OCCCC[C@H](C)O3)cc1 | inactive: 1.05 |
| N[C@H](CO)C(=O)O | inactive: 0.998 |
| C[C@@H]1CN([C@H](C)CO)S(=O)(=O)c2ccc(C#CC3(O)CCCC3)cc2O[C@H]1CN(C)C(=O)Cc1cccnc1 | inactive: 1.03 |
| COc1ccc(N(C(=O)CSc2ncccn2)[C@@H](C(=O)NCCc2ccccc2)c2cccs2)cc1Cl | inactive: 1.03 |
| COc1cccc(Nc2ncnn3ccc(CN4CC[C@@H](N)[C@H](O)C4)c23)c1 | inactive: 1.07 |
| C[C@@H](O)C#Cc1ccc2c(c1)O[C@@H](CN(C)C(=O)c1ccccc1)[C@@H](C)CN([C@@H](C)CO)S2(=O)=O | inactive: 1.01 |
| C[C@@H]1CN([C@@H](C)CO)C(=O)c2cc(NC(=O)Cc3ccccc3)ccc2O[C@@H](C)CCCCO[C@H]1CN(C)S(=O)(=O)c1ccc(Cl)cc1 | inactive: 1.02 |
| O=C(NCCCN1CCOCC1)Nc1ccc(Cc2ccc(NC(=O)NCCCN3CCOCC3)cc2)cc1 | inactive: 0.996 |
| Cc1noc(C)c1NC(=O)Nc1ccc2c(c1)C(=O)N([C@H](C)CO)C[C@H](C)[C@@H](CN(C)C(=O)Nc1ccc3c(c1)OCO3)OCCCC[C@@H](C)O2 | inactive: 0.977 |
| Cc1noc(C)c1NC(=O)Nc1ccc2c(c1)CC(=O)N([C@H](C)CO)C[C@H](C)[C@@H](CN(C)Cc1ccc(Cl)c(Cl)c1)O2 | inactive: 0.986 |
| Cc1ccc(S(=O)(=O)Nc2ccc3c(c2)CC(=O)N([C@@H](C)CO)C[C@H](C)[C@H](CN(C)Cc2ccc(Cl)c(Cl)c2)O3)cc1 | inactive: 1.02 |
| Oc1cccc(-c2nc3ccc4ccccc4c3c3c2CCC3)c1 | inactive: 0.994 |
| C[C@@H]1O[C@@H](O[C@H]2[C@H](OC(=O)[C@]34CCC(C)(C)C[C@H]3C3=CC[C@H]5[C@@]6(C)CC[C@H](O[C@@H]7O[C@H](CO)[C@@H](O)[C@H](O)[C@H]7O)C(C)(C)[C@@H]6CC[C@@]5(C)[C@]3(C)C[C@H]4O)OC[C@H](O)[C@@H]2O)[C@H](O)[C@H](O[C@@H]2OC[C@H](O)[C@H](O)[C@H]2O)[C@H]1O[C@@H]1OC[C@@H](O)[C@H](O[C@@H]2OC[C@H](O)[C@H](O)[C@H]2O)[C@H]1O | inactive: 0.997 |
| O=C1O[C@@H](c2ccccc2)[C@@H](c2ccccc2)N2[C@@H](c3ccc(OCCO)cc3)[C@]3(C(=O)Nc4ccc(C#CC5=CCCCC5)cc43)[C@@H](C(=O)N3CCN(c4ncccn4)CC3)[C@H]12 | inactive: 1.07 |
| C[C@H](CO)N1C[C@H](C)[C@H](CN(C)S(C)(=O)=O)Oc2cc(C#Cc3ccccc3)ccc2S1(=O)=O | inactive: 1.02 |
| COCC(=O)Nc1ccc2c(c1)C(=O)N(C)[C@@H]1CC[C@@H](CC(=O)N3CCc4ccccc4C3)O[C@@H]1CO2 | inactive: 0.989 |
| C[C@H]1CCCCO[C@H](CN(C)S(=O)(=O)c2ccc(Cl)cc2)[C@@H](C)CN([C@@H](C)CO)C(=O)c2cc(NC(=O)Nc3cccc4ccccc34)ccc2O1 | inactive: 0.988 |
| C[C@@H]1CN([C@@H](C)CO)C(=O)c2cc(NC(=O)Nc3ccccc3)ccc2O[C@@H]1CN(C)C(=O)Nc1cccc2ccccc12 | inactive: 1.03 |

| SMILES | relative growth |
| --- | --- |
| Nc1cnc2ncc(N)cc2c1 | inactive: 0.988 |
| C[C@H](CO)N1C[C@H](C)[C@H](CN(C)Cc2ccc(Oc3ccccc3)cc2)Oc2ccc(NS(=O)(=O)c3ccc(F)cc3)cc2CC1=O | inactive: 1.01 |
| CC(C)NC(=O)N(C)C[C@@H]1OCCCC[C@H](C)Oc2ccc(NC(=O)C3CCCCC3)cc2C(=O)N([C@@H](C)CO)C[C@H]1C | inactive: 0.978 |
| C[C@H](CO)N1C[C@H](C)[C@H](CN(C)S(=O)(=O)c2cccs2)Oc2c(NS(C)(=O)=O)cccc2C1=O | inactive: 0.987 |
| C[C@@H]1CCCCO[C@@H](CN(C)CC2CC2)[C@H](C)CN([C@@H](C)CO)C(=O)c2cc(NS(C)(=O)=O)ccc2O1 | inactive: 0.976 |
| C[C@H]1CN([C@@H](C)CO)C(=O)c2cc(N(C)C)ccc2O[C@@H]1CN(C)S(=O)(=O)c1ccc(Cl)cc1 | inactive: 1 |
| C[C@H](CO)N1C[C@H](C)[C@@H](CN(C)Cc2ccc3c(c2)OCO3)OCCCC[C@H](C)Oc2ccc(NC(=O)CCC(F)(F)F)cc2C1=O | inactive: 1.01 |
| COc1ccc(NC(=O)Nc2ccc3c(c2)C(=O)N([C@H](C)CO)C[C@H](C)[C@H](CN(C)CC2CCCCC2)OCCCC[C@H](C)O3)cc1 | inactive: 0.98 |
| CN1CC(=O)NC1=N | inactive: 0.974 |
| CCS(=O)(=O)N1C[C@]2(CN(Cc3cc(ccc3F)F)[C@@H](CO)c3c2c2ccc(cc2n3C)OC)C1 | inactive: 1.02 |
| O=C(N/N=C/[C@H](O)[C@@H](O)[C@H](O[C@@H]1O[C@H](CO)[C@H](O)[C@H](O)[C@H]1O)[C@H](O)CO)c1ccccn1 | inactive: 1.01 |
| C[C@H](CO)N1C[C@H](C)[C@@H](CN(C)C(=O)Nc2cccc3ccccc23)OCCCC[C@H](C)Oc2ccc(NC(=O)CCC(F)(F)F)cc2C1=O | inactive: 1.02 |
| COCC(=O)N1CC[C@]2(CC1)CN([C@H](CO)c1c2c2ccc(cc2n1C)OC)C(=O)CN1CCOCC1 | inactive: 1 |
| O=C(C[C@H]1CC[C@H](NC(=O)CN2CCOCC2)[C@H](CO)O1)NC1CCC1 | inactive: 0.998 |
| COCCNC(=O)C[C@H]1C[C@@H]2c3cc(NC(=O)COC)ccc3O[C@@H]2[C@@H](CO)O1 | inactive: 0.996 |
| C[C@@H]1CCCCO[C@H](CN(C)S(=O)(=O)c2cccs2)[C@H](C)CN([C@@H](C)CO)C(=O)c2cc(NC(=O)Cc3ccccc3)ccc2O1 | inactive: 1.01 |
| C[N+](C)(C)CCCCCCNC(=O)[C@H]1C[C@H]2C(=O)N[C@@H](Cc3ccccc3)C(=O)N2[C@H]1c1ccc(O)cc1 | inactive: 1.01 |
| Cc1ccc(S(=O)(=O)N(C)C[C@H]2Oc3ccc(NC(=O)c4ccncc4)cc3CC(=O)N([C@@H](C)CO)C[C@@H]2C)cc1 | inactive: 0.99 |
| C[C@H](CO)N1C[C@H](C)[C@H](CN(C)Cc2ccc(Oc3ccccc3)cc2)Oc2ccc(NS(=O)(=O)c3ccc(Cl)cc3)cc2CC1=O | inactive: 0.996 |

| SMILES | relative growth |
| --- | --- |
| Cc1cn(-c2cc(NC(=O)c3ccc(C)c(Nc4nccc(-c5cccnc5)n4)c3)cc(C(F)(F)F)c2)cn1 | inactive: 0.812 |
| C[C@H]1CN([C@@H](C)CO)C(=O)CCCn2cc(nn2)CO[C@H]1CN(C)C(=O)Nc1cccc(Oc2ccccn2)c1 | inactive: 0.982 |
| CCC(=O)N1Cc2cc(C(=O)Nc3nccs3)nc(-c3cccc(-c4ccccc4OC)c3)c2[C@H]1CCO | inactive: 1.01 |
| C[C@@H]1CCCCO[C@@H](CN(C)C(=O)NC2CCCCC2)[C@@H](C)CN([C@H](C)CO)C(=O)c2cc(NS(=O)(=O)c3ccccc3)ccc2O1 | inactive: 1.02 |
| COc1ccc(S(=O)(=O)N(C)C[C@H]2OCCCC[C@H](C)Oc3ccc(NC(=O)Nc4cccc5ccccc45)cc3C(=O)N([C@@H](C)CO)C[C@H]2C)cc1 | inactive: 1.04 |
| C[C@H]1CN([C@@H](C)CO)S(=O)(=O)c2ccc(Br)cc2O[C@@H]1CN(C)C(=O)C1CCOCC1 | inactive: 1.02 |
| COc1ccc(S(=O)(=O)Nc2ccc3c(c2)C(=O)N([C@@H](C)CO)C[C@H](C)[C@@H](CN(C)Cc2ccc(Cl)c(Cl)c2)OCCCC[C@@H](C)O3)cc1 | inactive: 0.949 |
| Cc1ccc(S(=O)(=O)N(C)C[C@H]2Oc3cc(C#Cc4ccncc4)ccc3S(=O)(=O)N([C@H](C)CO)C[C@H]2C)cc1 | inactive: 1.01 |
| C[C@@H]1CCCCO[C@H](CN(C)Cc2ccccc2)[C@@H](C)CN([C@@H](C)CO)C(=O)c2cc(NC(=O)c3ccccc3)ccc2O1 | inactive: 1.01 |
| C[C@H]1CN([C@@H](C)CO)C(=O)Cc2cc(NC(=O)Cn3cnnn3)ccc2O[C@H]1CN(C)S(=O)(=O)c1ccc(Cl)cc1 | inactive: 1.03 |
| CC(C)(C(=O)c1cccnc1)c1cccnc1 | inactive: 1.06 |
| C[C@H](CO)N1C[C@H](C)[C@@H](CN(C)S(C)(=O)=O)Oc2ccc(NC(=O)Cn3cnnn3)cc2C1=O | inactive: 0.96 |
| Cc1ccc(S(=O)(=O)Nc2ccc3c(c2)C(=O)N([C@H](C)CO)C[C@@H](C)[C@@H](CN(C)Cc2ccccc2)OCCCC[C@H](C)O3)cc1 | inactive: 1.02 |
| Cc1noc(C)c1S(=O)(=O)N(C)C[C@H]1Oc2ccc(NS(=O)(=O)c3ccc(F)cc3)cc2CC(=O)N([C@H](C)CO)C[C@H]1C | inactive: 0.992 |
| C[C@@H]1CN([C@H](C)CO)C(=O)c2cc(NC(=O)Nc3ccccc3)ccc2O[C@@H](C)CCCCO[C@@H]1CN(C)Cc1ccc(C(=O)O)cc1 | inactive: 0.984 |
| C[C@H](CO)N1C[C@H](C)[C@H](CN(C)S(=O)(=O)c2cn(C)cn2)Oc2ncc(-c3ccccc3)cc2C1=O | inactive: 0.988 |
| CO[C@@H]1[C@@H](OC(=O)c2ccc(C)[nH]2)[C@@H](O)[C@@H](Oc2ccc3c(c2C)OC(=O)[C@H](NC(=O)c2[nH]cc(CC(=O)Nc4cc5ccc(O[C@@H]6OC(C)(C)[C@H](OC)[C@@H](OC(=O)c7ccc(C)[nH]7)[C@H]6O)c(C)c5oc4=O)c2C)C3)CC1(C)C | active: 0.0629 |
| Cc1noc(C)c1NC(=O)Nc1ccc2c(c1)C(=O)N([C@@H](C)CO)C[C@@H](C)[C@@H](CN(C)Cc1ccccc1)OCCCC[C@H](C)O2 | inactive: 0.999 |
